Results reported in PubChem BioAssay AID1347417 (National Center for Advancing Translational Sciences (NCATS), 2020).
The campaign covered roughly 120,000 compounds. About 5,300 (4.4%) were called active. This list was built around the results that the source calls inconclusive (neither active nor inactive); the mix of calls is not that of the screen. Calls follow the shape of the dose curve; as a rule, active = well fitted inhibition curve with a large enough effect; inconclusive = small, poorly fitted or top-dose-only effect; inactive = no such curve, though single readings can be large or run the other way. Potencies beside an inconclusive call are fits to weak or partial responses and may not hold up.

Assay: qHTS Primary assay for Inhibitors of Plasmodium falciparum Dd2 growth in vitro; also: nearly all actives have a fitted effect of over 65% in size;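 as to activity, negative = inhibition: plate controls were DMSO vehicle for no effect and reference drug for full effect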
Conditions: P. falciparum Dd2 growth, SYBR Green, 72 h; activity, negative = inhibition: at 28.9 µM (top of the series) unless noted; series mostly up to 28.9 µM
Procedure, shortened: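 Infected erythrocytes (Dd2, 0.3% parasitemia, 2.5% hematocrit final) are added to compound in RPMI-1640/Albumax II medium, grown 72 h at 37C in low oxygen, then lysed with saponin/Triton-X containing SYBR Green and read by fluorescence.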
Potency is read from the fitted curve at half-maximal effect; tags tell the direction and shape of the fitted curve.

SMILES | activity, negative = inhibition | Potency | outcome
Cc1noc(C)c1CN1C[C@@H]2C(C(=O)Nc3ccccc3)=NO[C@@H]2C1 | inactive: 42.5% [at 44.1 µM] | – | –
N#Cc1ccccc1S(=O)(=O)N[C@H]1CO[C@H]2[C@@H]1OC[C@@H]2n1nnnc1Oc1cccc(N2CCOCC2)c1 | – | inconclusive: 12.6 µM [inhibitor, partial curve, poor fit] | –
CNC(=O)CCn1ncc2cc(OCc3ccccc3-c3ccc(F)cc3)ccc21 | – | inconclusive: 3.16 µM [inhibitor, full curve] | –
CN(Cc1ccccc1)C(=O)[C@H]1O[C@H](CCN2CCN(c3ccc(F)cc3)CC2)CC[C@@H]1O | – | inconclusive: 1 µM [inhibitor, partial curve] | –
COCCN1C(=O)c2ccccc2C(C(=O)Nc2ccccc2O)C12CCCCC2 (stereo unspecified) | – | inconclusive: 1.12 µM [inhibitor, partial curve] | –
Cc1nc(CCNC(=O)Nc2cccc(F)c2C)no1 | inactive: -19.5% | – | –
CS(=O)(=O)N1CCCN(Cc2cccc(C#N)c2)CCNC(=O)CC1c1ccccc1 (stereo unspecified) | – | inconclusive: 12.6 µM [inhibitor, single point] | –
O=C(c1cc[nH]c1C1CCCNC1)N(Cc1ccc(F)cc1)Cc1cccnc1 (stereo unspecified) | – | inconclusive: 11.2 µM [inhibitor, single point] | –
Cc1cc(Cl)ccc1NC(=O)CCn1ccn2nc3c(c2c1=O)CCCC3 | – | inconclusive: 12.6 µM [inhibitor, single point] | –
O=C1CC2(CCN(C(=O)c3ccc4c(c3)OCO4)CC2)Oc2cc(Cl)ccc21 | – | – | inactive
Cc1ccccc1CN1C(=O)c2ccccc2Sc2ccc(C(=O)NCc3cccs3)cc21 | – | inconclusive: 11.2 µM [inhibitor, single point] | –
CCN1CC(c2ccccc2)CC2(CCN(c3cc(N)ncn3)CC2)C1 (stereo unspecified) | – | inconclusive: 12.6 µM [inhibitor, partial curve, poor fit] | –
CCC(=O)N1CCc2cc(Br)cc(S(=O)(=O)N3CCCC(C(=O)NCc4ccccc4)C3)c21 (stereo unspecified) | – | inconclusive: 4.47 µM [inhibitor, partial curve, poor fit] | –
Cc1noc(C)c1S(=O)(=O)N[C@@H]1C[C@H](Cn2cc(-c3cccnc3)nn2)[C@@H](O)[C@H]1O | inactive: -21.6% | – | –
Cc1ccc2[nH]c(=O)c(CCC(=O)N3CCCCC3)cc2c1 | – | inconclusive: 7.94 µM [inhibitor, partial curve, poor fit] | –
CC(NC(=O)c1ccccc1F)C(=O)N1CCN(c2ccccn2)CC1 (stereo unspecified) | inactive: -9.75% | – | –
CCC(C)NC(=O)C1COC2(CCN(C(=O)c3ccc(Cl)cc3)CC2)N1C(=O)c1ccccc1C (stereo unspecified) | – | inconclusive: 11.2 µM [inhibitor, single point] | –
COCCCNc1nc2c(S(=O)(=O)c3cc(C)ccc3C)nnn2c2ccccc12 | – | inconclusive: 11.2 µM [inhibitor, single point] | –
CCCNC(=O)C(C)(C)Oc1nn(Cc2ccccc2)c2ccc(COC)cc12 | – | inconclusive: 2.82 µM [inhibitor, single point] | –
Cc1noc([C@H]2CCN(Cc3ccc(F)c(F)c3)C[C@H]2NC(=O)C2CC2)n1 | – | – | inactive [at 5.79 µM]
O[C@@H]1CC(CNCc2cccnc2)(COc2ccc(C(F)(F)F)cn2)C[C@@H]1O (stereo partly specified) | inactive: -2.29% | – | –
CC(C)n1ccnc1CN1CCc2onc(-c3ccc(Cl)cc3)c2C1 | – | active: 12.6 µM | –

SMILES | activity, negative = inhibition | Potency | outcome
CCn1c(C)cc(C)c(C(=O)NCC2CCOc3ccccc3C2)c1=O (stereo unspecified) | inactive: -2.76% | – | –
O=C1NCc2ccccc2CC12CCN(C/C=C/c1ccccc1)CC2 | – | inconclusive: 14.1 µM [inhibitor, single point] | –
CCc1cccc2c(C(CC(=O)NCCc3ccc(OC)c(OC)c3)c3ccccc3OC)c[nH]c12 (stereo unspecified) | – | inconclusive: 1.78 µM [inhibitor, partial curve, poor fit] | –
Cc1ccc(CN2C(=O)OC(c3cccc(NC(=O)Cc4ccccc4)c3)C2C(=O)NCC(C)C)cc1 (stereo unspecified) | – | inconclusive: 1.26 µM [inhibitor, partial curve, poor fit] | –
CCN1CCN(c2ncc3c(n2)CCN(Cc2ccc(Br)s2)C3)CC1 | – | inconclusive: 17.8 µM [inhibitor, single point] | –
CCOc1ccc(/C=C/c2nc3ccccc3n2S(=O)(=O)c2ccc(Br)cc2)cc1 | – | active: 11.2 µM | –
COc1cccc(NC(=O)Cn2c(=O)n(-c3ccc(Cl)cc3)c(=O)c3sc4ccccc4c32)c1 | – | active: 11.2 µM | –
Cc1c(Cl)cccc1NC(=O)Cn1c(C)cc2nc3n(c(=O)c21)CCCCC3 | – | inconclusive: 20 µM [inhibitor, single point] | –
COCCn1ncc(N2CCC(NC(=O)C3CCOC3)CC2)cc1=O (stereo unspecified) | inactive: 18.5% | – | –
CCC(CC)C(=O)NC1CCN(c2cnn(Cc3ccccc3)c(=O)c2)CC1 | inactive: -5.05% | – | –
N#Cc1cccc(C(=O)Nc2ccc([C@H]3OCC(=O)N(Cc4ccc(F)cc4)[C@@H]3CO)cc2)c1 | – | inconclusive: 3.16 µM [inhibitor, partial curve] | –
COc1cc(C2c3c(-c4cc(C)ccc4O)n[nH]c3C(=O)N2CCCO)ccc1OCCC(C)C (stereo unspecified) | – | active: 3.16 µM | –
CCc1ccccc1Nc1cc(C(=O)NC(C)c2ccccc2)c2ccccc2n1 (stereo unspecified) | – | inconclusive: 11.2 µM [inhibitor, single point] | –
CCCc1nn2c(=O)cc(COC(=O)c3ccccc3NC(=O)c3ccc(Cl)cc3)nc2s1 | – | inconclusive: 15.8 µM [inhibitor, partial curve, poor fit] | –
COC[C@@H]1CN(C(=O)CCc2ccccc2)C[C@H]1C(N)=O | inactive: -6.98% | – | –
Cc1cnc(NC(=O)c2ccc3c(c2)OCCN(CCC(C)C)C3)s1 | – | inconclusive: 3.55 µM [inhibitor, full curve, poor fit] | –
CCOC(=O)c1ccccc1NC(=O)N1CCC(CN2CCCCC2)CC1 | – | inconclusive: 10 µM [inhibitor, single point] | –
CC(C)c1noc(-c2cn(C3CCN(C(=O)c4cccc5[nH]ccc45)C3)nn2)n1 (stereo unspecified) | inactive: 52.4% | – | –
O=C(c1ccc(Cl)cc1)N1CCOCC2(C1)CN([S+](=O)([O-])c1ccccc1)C2 | inactive: 41.4% [at 44.1 µM] | – | –
Cc1ccc(Cl)cc1NC(=O)Cn1c(C)cc2nc3n(c(=O)c21)CCCC3 | – | inconclusive: 3.98 µM [inhibitor, single point] | –
Cc1nc(C)c(C(=O)N2CCC3(CC2)CC(N(Cc2ccccc2)C2CC2)CCO3)s1 (stereo unspecified) | – | inconclusive: 10 µM [inhibitor, partial curve, poor fit] | –
O=C(Nc1cc(F)ccc1F)N1CCC(CN2CCCC2)CC1 | – | – | inactive

SMILES | activity, negative = inhibition | Potency | outcome
CN(C)C(=O)c1ccc(OC2CCN(C(=O)c3ccccc3)CC2)nc1 | inactive: 25% | – | –
COc1ccc(-c2noc([C@@H](C)NC(C)=O)c2C(=O)O)cc1 | inactive: 42.5% [at 44.1 µM] | – | –
CC(C)(C)CC(=O)N[C@H]1CC(C)(C)[C@@H]2C[C@@](C)(O)CC[C@]12CCC(=O)NCCc1c[nH]c2ccccc12 | – | inconclusive: 10 µM [inhibitor, single point] | –
CS(=O)(=O)Nc1ccc([C@H]2OCC(=O)N(C3CCOCC3)[C@@H]2CO)cc1 | – | inconclusive: 10 µM [inhibitor, single point] | –
O=C(c1ccccc1F)N1CCC(Oc2cccnc2)C1 (stereo unspecified) | inactive: 3.1% | – | –
Cc1ccc(C)c([S+](=O)([O-])c2nnn3c2nc(NC2CC2)c2ccccc23)c1 | – | inconclusive: 10 µM [inhibitor, partial curve, poor fit] | –
CCc1sc(Nc2cccc(C)c2C)nc1-c1cc2cccc(OC)c2oc1=O | – | inconclusive: 12.6 µM [inhibitor, single point] | –
COc1ccc2c(CNCCc3ccco3)c(C(=O)O)n(Cc3ccccc3)c2c1 | inactive: -12.2% | – | –
CCOc1ccccc1C(=O)NC1CCCN(c2cc(-c3ccc(Cl)cc3)[nH]n2)C1 (stereo unspecified) | – | inconclusive: 0.0631 µM [inhibitor, single point] | –
COc1ccc(NC(=O)CSc2nc3ccccc3n2Cc2cccc(OC)c2)cc1 | – | inconclusive: 17.8 µM [inhibitor, single point] | –
CCOc1ccc(NC(=O)C2CCN(c3nnc(-n4c(C)ccc4C)s3)CC2)cc1 | – | inconclusive: 11.2 µM [inhibitor, single point] | –
CC(C)NC(=O)NC[C@H]1OC[C@@H](NC2CCCC2)[C@@H]1O | inactive: 24.8% [at 44.1 µM] | – | –
OC1CCCN(c2ccc(-c3nc(-c4cccc(C(F)(F)F)c4)no3)cn2)C1 (stereo unspecified) | – | inconclusive: 14.1 µM [inhibitor, single point] | –
N#Cc1ccc(CN2CCCC3(CC(c4ccccn4)=NO3)C2)cc1 (stereo unspecified) | inactive: -11.3% | – | –
CC1=C[C@@H](CN2CCCC2)[C@H](C(C)C)C[C@H]1Cc1nnc(-c2ccc([N+](=O)[O-])cc2)o1 | – | active: 1.78 µM | –
COc1ccc(-c2nc(C3CC3)nc3c2CCN(Cc2ccccc2)CC3)cc1 | – | active: 5.01 µM | –
CCC(c1cccs1)N1C(=O)[C@H]2CN(S(=O)(=O)c3ccc4c(c3)CCC4)C[C@H]2C1=O (stereo partly specified) | – | inconclusive: 12.6 µM [inhibitor, single point] | –
COc1ccccc1-c1ccnc(N[C@H]2CO[C@H]3[C@@H]2OC[C@@H]3NS(=O)(=O)c2ccc(NC(C)=O)cc2)n1 | – | – | inactive
CN1CCN(c2ncnc3sc4c(c23)CCNC4)CC1 | – | inconclusive: 7.94 µM [inhibitor, partial curve, poor fit] | –
COCCCNC(=O)C1CCN(c2nn3cc(-c4ccc(F)cc4)nc3s2)CC1 | inactive: -4.15% | – | –
COc1ccc(CN2C[C@H](O)C[C@H]2c2nc(-c3cccc(C)c3)no2)c2ccccc12 | – | inconclusive: 31.6 µM [inhibitor, single point] | –
O=C(Cn1ccn2nc(-c3ccc(F)cc3)c(CO)c2c1=O)Nc1ccc(Cl)cc1F | – | inconclusive: 0.126 µM [inhibitor, full curve, poor fit] | –
